# Assay results taken from article PMC4336329 (PLoS ONE, 2015).
# About 2,200 (0.71%) of roughly 310,000 compounds showed an effect of 50% or more. Effects have a minus sign here. Some of the results follow.
# Target: human ether-à-go-go-related gene (hERG) potassium channel (human, UniProt Q12809)
# Assay: primary screen, population patch clamp on CHO cells stably expressing hERG
# human ether-à-go-go-related gene (hERG) potassium channel, sequence (Q12809 whole entry, looked up): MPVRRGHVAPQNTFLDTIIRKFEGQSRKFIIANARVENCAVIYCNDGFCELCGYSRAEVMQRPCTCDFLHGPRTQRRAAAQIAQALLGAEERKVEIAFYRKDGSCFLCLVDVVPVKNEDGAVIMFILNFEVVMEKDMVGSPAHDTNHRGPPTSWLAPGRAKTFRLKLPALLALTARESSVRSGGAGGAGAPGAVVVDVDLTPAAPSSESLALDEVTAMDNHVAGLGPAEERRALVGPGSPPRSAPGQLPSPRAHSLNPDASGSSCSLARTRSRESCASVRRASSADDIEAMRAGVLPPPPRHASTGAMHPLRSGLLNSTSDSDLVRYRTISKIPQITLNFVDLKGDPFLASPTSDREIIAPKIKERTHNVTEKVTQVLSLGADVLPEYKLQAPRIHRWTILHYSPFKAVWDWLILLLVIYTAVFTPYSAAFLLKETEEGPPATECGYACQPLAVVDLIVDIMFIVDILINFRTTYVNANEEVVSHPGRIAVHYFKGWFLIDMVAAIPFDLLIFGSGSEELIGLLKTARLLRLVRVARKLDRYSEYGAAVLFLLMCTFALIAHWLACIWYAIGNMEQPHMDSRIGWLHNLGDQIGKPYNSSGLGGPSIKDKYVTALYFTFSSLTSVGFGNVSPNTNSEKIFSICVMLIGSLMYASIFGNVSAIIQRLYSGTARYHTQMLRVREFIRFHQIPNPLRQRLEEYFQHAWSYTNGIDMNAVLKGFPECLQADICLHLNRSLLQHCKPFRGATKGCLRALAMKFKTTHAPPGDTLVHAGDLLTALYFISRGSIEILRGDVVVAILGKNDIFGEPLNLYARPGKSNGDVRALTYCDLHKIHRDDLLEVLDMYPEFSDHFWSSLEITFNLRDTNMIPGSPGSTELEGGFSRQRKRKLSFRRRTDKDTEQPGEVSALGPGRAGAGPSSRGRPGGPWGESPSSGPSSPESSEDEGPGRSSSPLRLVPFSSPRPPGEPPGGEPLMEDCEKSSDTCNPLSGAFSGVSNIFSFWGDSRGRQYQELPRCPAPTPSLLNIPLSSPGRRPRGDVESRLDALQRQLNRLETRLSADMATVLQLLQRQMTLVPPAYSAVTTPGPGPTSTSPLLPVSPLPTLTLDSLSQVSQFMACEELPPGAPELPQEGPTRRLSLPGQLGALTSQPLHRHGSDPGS
row,SMILES,"hERG current change (%, negative = inhibition) at 1uM"
1,NCCN1CCN(CC(=O)N2c3ccccc3C(=O)Nc3cccnc32)CC1,15.1%
2,NNC(=O)c1[nH]c2ccc(Br)cc2c1-c1ccccc1,14.6%
3,CSCCC(NC(=O)c1ccco1)C(=O)N1CC(C)OC(C)C1 (centres unmarked),5.26%
4,COc1ccc(NC(=S)NCc2ccc3c(c2)cc(C)n3C)cc1,10.7%
5,NC(=O)CSc1nc2ccccc2n1Cc1ccccc1,1.88%
6,CC(C)CC(NC(=O)C(NC(=O)C1CCC(=O)N1C(=O)OCc1ccccc1)C(C)C)C(=O)N1CCCC1C(N)=O (centres unmarked),15.8%
7,O=C(C(Cc1ccccc1)n1cccc1)N1CCN(c2cccc(Cl)c2)CC1 (centres unmarked),-6.42%
8,Cc1c(C(=O)OCC(=O)NCc2ccco2)oc2ccccc12,10.1%
9,Cc1ccc(S(=O)(=O)N2c3ccccc3NC(=O)C2CC(=O)Nc2ccccc2)cc1 (centres unmarked),7.13%
10,Nc1ccc(C(=O)n2c3ccccc3c3ccccc32)cc1,7.66%
11,Oc1oc(-c2cccc3ccccc23)nc1/C=N/c1nccs1,5.22%
12,O=C(CSc1nnc(-c2cccnc2)n1-c1ccc(SC(F)F)cc1)N1CCCc2ccccc21,-1.92%
13,COc1ccc(S(=O)(=O)N2CCN(Cc3ccc4c(c3)OCO4)CC2)c2ccccc12,10.3%
14,O=C(CSc1nnc(CNC(=O)c2ccccc2F)o1)NC1CCCC1,17.7%
15,Cc1ccc(S(=O)(=O)N(C)c2ccc(OCC(=O)Nc3cccc(-n4cnnn4)c3C)cc2)cc1,-3.97%
16,COc1ccc(OC)c2[nH]c(=O)c(CCNS(=O)(=O)c3ccc(Cl)cc3)cc12,9.11%
17,Cl.Fc1ccc(Nc2nc(N3CCOCC3)nc(N3CCOCC3)n2)cc1Cl,11%
18,O=C(OCC(=O)N1CCC(c2ccccc2)=N1)c1ccc([N+](=O)[O-])s1,5.2%
19,Cc1cc(N2CCCCC2)nc2c(C)cccc12,11.3%
20,O=C(Nc1ccc(NC(=O)c2ccco2)c(Cl)c1)c1ccccc1,0.179%
21,CCCNC(=S)N1CCC(n2cnc3ccccc32)CC1,-2.36%
22,Br.Fc1cccc(CNCc2ccc3c(c2)OCO3)c1,7.01%
23,CCCc1nc2c(=O)n(C)c(=O)[nH]c2n1C,5.31%

row,SMILES,"hERG current change (%, negative = inhibition) at 1uM"
1,CCC(C)N(C(=O)COc1ccccc1C#N)C1CCS(=O)(=O)C1 (centres unmarked),6.64%
2,CCOc1ccc(NC(=O)CCNC(=O)c2ccco2)cc1,18%
3,O=C(CSc1ccc(F)cc1)NCC1(N2CCOCC2)CCCCC1,1.4%
4,O=C(CN(CC1CCCO1)C(=O)CNS(=O)(=O)c1ccc(F)cc1)NC1CCCCC1 (centres unmarked),4.21%
5,COc1ccccc1CCNC(=O)CSc1nnc2ccc(-c3cccnc3)nn12,-8.93%
6,O=C(CN1CCOCC1)NNC(=O)c1ccc([N+](=O)[O-])cc1,4.43%
7,COc1ccccc1Nc1cc(C)nc2c(C)ccc([N+](=O)[O-])c12,10.9%
8,CC(C)Oc1ccc(C(CCN)C2CCCCC2)cc1.O=C(O)C(=O)O (centres unmarked),11%
9,Cc1ccc(C(=O)/C=C/Nc2ccc3c(c2)OCO3)cc1,11.8%
10,CCOc1ccccc1N(CC(=O)NCCOC)C(=O)CCC(=O)Nc1ccccn1,6.25%
11,Cc1cc2ncn(-c3ncnc4scc(-c5ccccc5)c34)c2cc1C,7.63%
12,C=CCN(C(=O)Cn1c(C(=O)OC)cc2oc(C)cc21)c1ccccc1,1.04%
13,CCCCCCn1c(O)c(C=Nc2ccccc2N2CCOCC2)c(=O)[nH]c1=S,12.5%
14,Cc1ccccc1N(C(=O)CNC(=O)c1ccco1)C(C(=O)NC1CCCC1)c1ccncc1 (centres unmarked),8.55%
15,COc1ccc(/C=N/NC(=O)c2ccc(CSc3nc(C)cc(C)n3)cc2)cc1O,2.4%
16,O=C(CNC(=O)c1ccco1)Nc1ccc(S(=O)(=O)N2CCCC2)cc1,9.96%
17,CC(=O)Nc1ccc2oc(-c3ccccc3Br)nc2c1,2.91%
18,CCOC(=O)c1cc(-c2csc(-c3ccc(C(F)(F)F)cc3)n2)on1,12.4%
19,O=C(Nc1ccccc1)c1cc([N+](=O)[O-])ccc1NC1CCCCC1,9.27%
20,COc1ccc(/C(C)=N/NC(=O)CNC(=O)CCc2ccccc2)c(OC)c1,9.77%
21,NC(=O)c1c(NC(=O)c2ccccc2)sc2c1CCC2,11.4%
22,O=C(NCC(=O)N(CC1CCCO1)C(C(=O)NC1CCCCC1)c1cccnc1)c1cccs1 (centres unmarked),12.3%
23,O=Cc1c(Cl)nc2ccccn2c1=O,0.383%

row,SMILES,"hERG current change (%, negative = inhibition) at 1uM"
1,Cc1[nH]nc(-c2ccc(OCc3cnn(-c4ccccc4)c3)cc2O)c1Oc1ccccc1F,11.5%
2,CC(C)C(=O)Nc1nc2ccc(S(C)(=O)=O)cc2s1,6.1%
3,CCOc1ccc(NC(=O)NCc2ccc3c(c2)OCO3)cc1,12%
4,CCOC(=O)c1cnc2nc(C)[nH]n2c1=O,9.5%
5,O=C1CN(C(=O)CC2C(=O)NCCN2Cc2ccccc2C(F)(F)F)CCN1 (centres unmarked),10.9%
6,O=C(O)CCC(=O)N1CCN(S(=O)(=O)c2cccs2)CC1,21.4%
7,O=C(c1cn(-c2ccccc2)nc1-c1cccnc1)N1CCCC(C(F)(F)F)C1 (centres unmarked),-4.05%
8,COc1cc(C)c(NC(=S)NCCCN2CCOCC2)cc1OC,-5.81%
9,Cc1ccc(C(=O)N2CCN(S(=O)(=O)c3cc(Br)ccc3Br)CC2)o1,-0.209%
10,O=C(CSc1ncccn1)N1CCN(C(=O)CSc2ncccn2)CC1,-1.62%
11,COc1ccc(CC(=O)Nc2sc3c(c2C#N)CC(C)(C)NC3(C)C)cc1OC,9.58%
12,Cc1c(Cc2ccccc2)c(=O)oc2cc(OCC(=O)c3ccccc3)ccc12,10.3%
13,C=CCN1C=CC=C/C1=C1\SC(=S)N(C)C1=O,14.2%
14,COc1cccc(Cn2c(=O)c3[nH]cnc3n(-c3ccccc3C)c2=O)c1,5.01%
15,Cc1cc(C)c(NC(=O)COC(=O)CCc2ccc(S(=O)(=O)N3CCCCC3)cc2)c(C)c1,7.56%
16,O=C(C[n+]1ccccc1)N/N=C/c1ccc(Cl)c(Cl)c1.[Cl-],7.26%
17,COC(=O)C1=C(N)Oc2cc(C)n(Cc3cccnc3)c(=O)c2C1c1ccc(OC)c(OC)c1 (centres unmarked),0.136%
18,O=C(CC1SC(=O)NC1=O)Oc1ccc(/C=N/NC(=O)c2ccccc2O)cc1 (centres unmarked),9.35%
19,CCn1cc(C(=O)N[C@@H](CC(C)C)C(=O)NCCCn2ccnc2)c(=O)c2cc3c(cc21)OCO3,17.4%
20,O=C(COC(=O)c1ccc(OC(F)F)cc1)NCCCN1CCCC1=O,0.628%
21,O=c1c(-c2nn[nH]n2)coc2ccc(Cl)cc12,15.5%
22,CCOc1ccc(CC(=O)NCc2cn3c(C)csc3n2)cc1,13.7%
23,CCC(CC)C(=O)c1c[nH]c(C(=O)NCc2ccccc2)c1,8.11%

row,SMILES,"hERG current change (%, negative = inhibition) at 1uM"
1,Cc1ccccc1-c1nnn(Cc2cccc(S(=O)(=O)N3CCOCC3)c2)n1,10.9%
2,O=C(COc1ccc2c(c1)OCO2)Nc1nncs1,11.3%
3,N#Cc1nc(COc2ccc(F)cc2)oc1N1CCC(Cc2ccccc2)CC1,7.85%
4,CCOc1ccc(NC(=O)CCC(=O)Nc2nnc(CC)s2)cc1,7.76%
5,Cc1ccc2nc(Cl)c(C3CC(c4ccco4)=NN3S(C)(=O)=O)cc2c1 (centres unmarked),-9.31%
6,Fc1ccc(CNc2ncccn2)cc1,12.1%
7,CN(CC(=O)Nc1ccccc1Cl)C1CCCCC1,6.46%
8,CCn1c(SCC(=O)N2CCCC(C)C2)nnc1-c1ccco1 (centres unmarked),3.63%
9,Cc1ccccc1/C=N/Nc1ccnc2cc(Cl)ccc12,5.75%
10,COC(=O)CNc1nc(Cl)nc(N2CCC(C)CC2)n1,11.8%
11,O=C(CCN1CCN(C(c2ccccc2)c2ccccc2)CC1)N/N=C/c1ccc(O)cc1,-24.9%
12,Cc1ccnc(NC(c2ccccn2)c2c(C)[nH]c3ccccc23)c1 (centres unmarked),7.31%
13,COc1cc(NC(=O)C2CC(c3ccc(Cl)cc3)=NO2)cc(OC)c1OC (centres unmarked),14.2%
14,Cc1cc(/C=C2\C(=O)NC(=O)N(Cc3ccccc3)C2=O)c(C)n1C1CC1,5.17%
15,C=CCc1ccccc1OCC(O)CN1CCN(Cc2ccc3c(c2)OCO3)CC1 (centres unmarked),-45.4%
16,COc1ccccc1CNC(=O)CCCn1nc(C)c2c(C)n(-c3ccccc3)nc2c1=O,7.11%
17,CN(C)/C=N/c1c(C#N)cnn1C,6.97%
18,Cn1c(N/N=C/c2c[nH]c3ccccc23)nc2ccccc21,-5.14%
19,Cc1nc2ccccc2c(=O)n1NC(=O)c1ccc(C(C)(C)C)cc1,18%
20,C#CCOCCOCCOCCNc1nc(N2CCN(C(=O)[C@H](CCCCN)n3cc([C@@H](N)C(C)CC)nn3)CC2)nc(N2CCN(C(=O)[C@H](CCCCN)n3cc([C@@H](N)CO)nn3)CC2)n1.Cl (some centres unmarked),12%
